Results reported in PubChem BioAssay (Tox21).
“And” between values parts separate entries of the source, which are not always exact repeats. Equal entries are not always repeated. Inconclusive results, whose numbers are uncertain, are shown with a selection of clear calls. For part of these data: Potencies beside an inconclusive call are fits to weak or partial responses and may not hold up. Some structures have more than one record in an assay (separate samples or runs), and their calls can disagree. The source made the active and inactive calls. Unless noted, calls follow the shape of the dose curve; as a rule, active = well fitted curve in the direction sought with a large enough effect in the repeat runs; inconclusive = weak or mixed curves; inactive = no such curve, though single readings can be large; an effect the other way counts as inactive or inconclusive.

What was measured:
[1] = qHTS assay to identify small molecule agonists of the progesterone receptor (PR) signaling pathway - cell viability counter screen (AID 1346799; calls by dose curve; also: nearly all actives have a fitted effect of over 45% in size; also: potency is read from the fitted curve at half-maximal effect)
Outline: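 In parallel with the beta-lactamase readout, cytotoxicity toward PR-UAS-bla HEK293T cells was measured by CellTiter-Glo luminescence following 16 hr compound incubation in 2% charcoal-stripped FBS medium.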

[2] = molecular target: Cytochrome P450 2D6 (Homo sapiens) (UniProt P10635); test: Cytochrome P450 Family 2 Subfamily D Member 6 (CYP2D6) small molecule antagonists: luciferase reporter qHTS assay (AID 1671196); also: nearly all actives have a fitted effect of over 50% in size; also: potency is read from the fitted curve at half-maximal effect
Outline: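 Chemicals tested for interference with CYP2D6 activity; proluciferin substrate, NADPH regeneration, 1 h at room temperature, luminescent detection.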

[3] = Caspase-3/7 induction in HepG2 cells by small molecules, qHTS cell viability counter screen (AID 1346981); also: potency is read from the fitted curve at half-maximal effect; nearly all actives have a fitted effect of over 30% in size
Outline: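 Treatment of HepG2 cells with DMSO-delivered compounds ran 16 hr at 37 C following a 5-hr pre-incubation of 2,000 cells/well. CellTiter-Fluor fluorescence, read after 1 hr, served as the viability measure in a qHTS format.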

[4] = molecular target: Cytochrome P450 2C9 (Homo sapiens) (UniProt P11712); test: Cytochrome P450 Family 2 Subfamily C Member 9 (CYP2C9) small molecule antagonists: luciferase reporter qHTS assay (AID 1671198); also: nearly all actives have a fitted effect of over 50% in size; also: potency is read from the fitted curve at half-maximal effect
Outline: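 CYP2C9 activity was measured with a P450-Glo proluciferin substrate. Enzyme–substrate mix was held with compound for 10 min at room temperature, then NADPH regeneration solution was added for 1 h at 37C. Luciferin product was read as luminescence.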

[5] = Caspase-3/7 induction in CHO-K1 cells by small molecules, qHTS cell viability counter screen (AID 1346979); settings: CellTiter-Fluor fluorescence, 17 h; series mostly up to 92.4 µM; also: nearly all actives have a fitted effect of over 35% in size
Outline: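 Viability readout by fluorescence (CellTiter-Fluor) on wild-type CHO-K1 cells exposed for 16hr at 37C and 5% CO2 to compounds delivered in DMSO; reagent incubated 1hr before reading.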

[6] = molecular target: Cytochrome P450 2C19 (Homo sapiens) (UniProt P33261); test: Cytochrome P450 Family 2 Subfamily C Member 19 (CYP2C19) small molecule antagonists: luciferase reporter qHTS assay (AID 1671197); also: nearly all actives have a fitted effect of over 65% in size; also: potency is read from the fitted curve at half-maximal effect
Outline: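 P450-Glo CYP2C19 screening system; proluciferin substrate; DMSO compound stocks; 10 min RT preincubation; NADPH regeneration, 1 h at 37C; luciferin detection reagent, 20 min RT; luminescence as RLU.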
Tags tell the direction and shape of the fitted curve.

UniProt P11712, sequence (P11712 whole entry, looked up): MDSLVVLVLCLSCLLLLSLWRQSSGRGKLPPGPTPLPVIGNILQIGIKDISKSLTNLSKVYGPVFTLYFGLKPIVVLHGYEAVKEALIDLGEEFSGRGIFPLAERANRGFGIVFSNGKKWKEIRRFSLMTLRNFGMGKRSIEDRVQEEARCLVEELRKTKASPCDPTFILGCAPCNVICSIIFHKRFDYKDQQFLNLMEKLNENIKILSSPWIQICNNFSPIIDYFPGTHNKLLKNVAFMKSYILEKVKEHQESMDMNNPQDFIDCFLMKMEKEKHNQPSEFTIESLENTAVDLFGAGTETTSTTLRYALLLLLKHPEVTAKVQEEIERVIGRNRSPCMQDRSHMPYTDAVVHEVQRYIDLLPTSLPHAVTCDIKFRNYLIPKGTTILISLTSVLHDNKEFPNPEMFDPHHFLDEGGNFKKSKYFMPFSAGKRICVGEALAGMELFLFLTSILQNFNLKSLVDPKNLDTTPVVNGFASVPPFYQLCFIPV
UniProt P33261, sequence (P33261 whole entry, looked up): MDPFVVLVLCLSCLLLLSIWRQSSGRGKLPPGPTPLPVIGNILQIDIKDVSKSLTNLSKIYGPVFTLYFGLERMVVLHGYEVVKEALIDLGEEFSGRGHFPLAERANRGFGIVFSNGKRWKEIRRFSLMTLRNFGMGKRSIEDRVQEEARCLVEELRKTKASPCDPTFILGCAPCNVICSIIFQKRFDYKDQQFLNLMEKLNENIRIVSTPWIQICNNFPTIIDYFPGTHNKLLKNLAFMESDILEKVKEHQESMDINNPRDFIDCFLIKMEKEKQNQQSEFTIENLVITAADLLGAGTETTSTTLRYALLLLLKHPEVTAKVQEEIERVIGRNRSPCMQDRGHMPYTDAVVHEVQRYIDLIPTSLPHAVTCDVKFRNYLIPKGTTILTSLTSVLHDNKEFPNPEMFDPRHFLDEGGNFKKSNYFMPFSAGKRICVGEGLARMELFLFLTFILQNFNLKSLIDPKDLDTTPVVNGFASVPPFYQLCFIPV
UniProt P10635, sequence (P10635 whole entry, looked up): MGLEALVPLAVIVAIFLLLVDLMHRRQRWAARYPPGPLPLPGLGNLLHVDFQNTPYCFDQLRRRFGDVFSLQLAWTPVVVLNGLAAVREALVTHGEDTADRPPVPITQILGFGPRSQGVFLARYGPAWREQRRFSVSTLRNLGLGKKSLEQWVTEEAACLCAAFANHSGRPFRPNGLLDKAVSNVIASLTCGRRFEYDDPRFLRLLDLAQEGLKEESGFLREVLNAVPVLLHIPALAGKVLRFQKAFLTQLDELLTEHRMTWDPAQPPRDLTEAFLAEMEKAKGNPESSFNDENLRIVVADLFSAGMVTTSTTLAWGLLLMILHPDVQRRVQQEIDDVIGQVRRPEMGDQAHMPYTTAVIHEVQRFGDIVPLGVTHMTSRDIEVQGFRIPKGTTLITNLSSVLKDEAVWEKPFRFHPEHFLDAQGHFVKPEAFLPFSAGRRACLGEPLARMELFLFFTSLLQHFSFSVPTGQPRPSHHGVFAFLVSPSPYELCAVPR

SMILES	Potency [1]	Potency [2]	Potency [3]	Potency [4]	Potency [5]	Potency [6]
O=C(C(=O)c1ccco1)c1ccco1	inconclusive: 2.75 µM [rising, full curve, poor fit]	inconclusive: 35.9 µM [inhibitor, partial curve]	–	–	–	–
CCCCCCCCCCCCCO	inconclusive: 71 µM [rising, single point]	–	inconclusive: 3.48 µM [cytotoxic, partial curve, poor fit]	inconclusive: 71.8 µM [inhibitor, partial curve, poor fit] and inconclusive: 29.3 µM [inhibitor, full curve]	–	–
CNCc1ccc(NC(=O)c2c[nH]c3c2C(=O)CCC3)cc1	inconclusive: 68.6 µM [rising, partial curve, poor fit]	–	–	inconclusive: 71 µM [inhibitor, partial curve, poor fit]	inactive	inconclusive: 89.4 µM [inhibitor, single point]
CCCCCCCCCCC=CC1CC(=O)OC1=O (stereo not given)	inconclusive: 61.1 µM [cytotoxic, partial curve, poor fit]	inconclusive: 89.9 µM [inhibitor, single point] and inconclusive: 56.4 µM [inhibitor, partial curve, poor fit]	–	–	–	active: 45 µM and inactive
OCCCCCCCl	inactive	inactive	–	inactive	–	–
